In article PMC6212790 one finds binding signal data, which are given here for 172 sequences.

The list shows a part of the results. At the low end of the ranking, values are background and their order means little.

For this test, the target named is T1, GST-Rok (full length) (UniProt O34857).
T1 sequence: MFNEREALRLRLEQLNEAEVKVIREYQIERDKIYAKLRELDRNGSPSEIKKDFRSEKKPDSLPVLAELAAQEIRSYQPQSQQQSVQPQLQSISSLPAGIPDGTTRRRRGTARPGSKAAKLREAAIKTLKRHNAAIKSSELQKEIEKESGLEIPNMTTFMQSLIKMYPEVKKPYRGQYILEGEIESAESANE
The test can be described thus: protein binding microarray.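 Also: rank score from −0.5 (least bound) to 0.5 (best bound).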 Particulars: Rok is a gene silencer of Bacillus subtilis; high values mean tight binding; most listed sequences are background and not binding sites; double strand, one strand shown.
The sequence AGTCACAC returned a binding signal of -0.0889 E-score.

The sequence ACATAAGC showed a binding signal of 0.141 E-score.

Turning to AACCTGCA, the binding signal is -0.231 E-score.

Take CTACTCGC: the binding signal came out at 0.118 E-score.

For CGCTATAG, the binding signal came to 0.0935 E-score.

Sequence ATTATCAA came in with a binding signal of 0.308 E-score.

The sequence AAGTATCG showed a binding signal of 0.113 E-score.

The sequence AGTCCTAG had a binding signal of 0.0621 E-score.

With CCCGGGAA, the binding signal is -0.199 E-score.

ATCCGCTG came in with a binding signal of 0.012 E-score.

AGTGTCAA: the binding signal came to 0.00921 E-score.

For the sequence CGTCATAG, the binding signal stood at 0.0138 E-score.

AGTACTGA: the binding signal was 0.172 E-score.

In turn, AATCCACT displayed a binding signal of -0.0752 E-score.

Regarding CCTGAGTC, the binding signal is -0.0724 E-score.

In turn, ATCGGATA yielded a binding signal of 0.127 E-score.

Sequence AAGTCCGC gave a binding signal of -0.0838 E-score.

For GGGAGGAC, the binding signal is -0.296 E-score.

On to ACGCAGGG, for which the binding signal is -0.3 E-score.

The sequence GAACGCAC had a binding signal of -0.177 E-score.

Sequence AGCCCTGC showed a binding signal of -0.296 E-score.

GACCCGCA: the binding signal was -0.218 E-score.

GTCCAGCA: the binding signal is -0.0786 E-score.

CACTTCGG: the binding signal is -0.244 E-score.

Take ACGCTCGG: the binding signal is -0.265 E-score.

For CCCTCCTC, the binding signal was -0.393 E-score.

As to CGCTCATC, the binding signal is -0.282 E-score.

The sequence CAGAAGCA had a binding signal of -0.0439 E-score.

In turn, ATAAGACC showed a binding signal of 0.135 E-score.

As for AGCCCAAT, the binding signal was -0.0279 E-score.

Sequence TCCAAGCA returned a binding signal of -0.0779 E-score.

The sequence TACCTACA came in with a binding signal of 0.322 E-score.

In the case of AACAGGAG, the binding signal is -0.0782 E-score.

Take GTAGAAAC: the binding signal was 0.427 E-score.

Sequence CGATCCCA came in with a binding signal of -0.16 E-score.

The sequence ATGCAAAG had a binding signal of -0.0588 E-score.

Sequence CCTTTCAG had a binding signal of -0.224 E-score.

Consider CGGCATTA, for which the binding signal amounted to 0.172 E-score.

Regarding GGGGTTCA, the binding signal is -0.329 E-score.

As for ACCGAGTG, the binding signal worked out at 0.0735 E-score.

As for CGCCTGGC, the binding signal was -0.352 E-score.

In the case of TCAACCAA, the binding signal was -0.0239 E-score.

CGTAATAC showed a binding signal of 0.301 E-score.

ACAATTGT showed a binding signal of 0.222 E-score.

GTCCGAAC displayed a binding signal of -0.0652 E-score.

Turning to GCTTTTCA, the binding signal turned out to be 0.0121 E-score.

CACAATCC registered a binding signal of 0.0049 E-score.

Take ACAGACGG: the binding signal stood at 0.0371 E-score.

Consider AACGCGCA, for which the binding signal is -0.0365 E-score.

ACGGCCGG showed a binding signal of -0.0785 E-score.

ACCCTAGA gave a binding signal of 0.0093 E-score.

Sequence CAGCAAAG returned a binding signal of -0.212 E-score.

Regarding CGACGGTC, the binding signal was -0.0734 E-score.

AAAATCCT came in with a binding signal of 0.14 E-score.

AACAGTCG showed a binding signal of 0.0313 E-score.

Take AGGGGAAA: the binding signal was -0.19 E-score.

Consider GCAGGGTA, for which the binding signal is -0.146 E-score.

ACTAGGAT registered a binding signal of 0.158 E-score.

The sequence GACGAGCA displayed a binding signal of -0.105 E-score.

For the sequence AGCAGCGC, the binding signal is -0.134 E-score.

On to TACGACGA, for which the binding signal was determined as 0.189 E-score.

On to ACAATGGG, for which the binding signal is -0.0476 E-score.

For GTGCCCAA, the binding signal was -0.184 E-score.

As to TAAATGCA, the binding signal turned out to be 0.255 E-score.

The sequence CCTCCGGA registered a binding signal of -0.227 E-score.

The sequence CTGGACGC displayed a binding signal of -0.0676 E-score.

In turn, CTGGATGC gave a binding signal of -0.368 E-score.

ATTTACTC: the binding signal stood at 0.0747 E-score.

The sequence AGCTCCCT showed a binding signal of -0.149 E-score.

GGCTGCAC showed a binding signal of -0.234 E-score.

Sequence CTTCCCTA yielded a binding signal of 0.0486 E-score.

As for GAGTGGCC, the binding signal is -0.302 E-score.

Sequence TCGCATCA had a binding signal of -0.179 E-score.

The sequence AAGAGTAA returned a binding signal of 0.146 E-score.

Take CCAAAGGC: the binding signal is -0.287 E-score.

Turning to CAATCTTA, the binding signal amounted to 0.154 E-score.

For the sequence CCAAGATA, the binding signal was 0.241 E-score.

With CTCAAAAA, the binding signal was -0.108 E-score.

GCCTAAGC returned a binding signal of -0.277 E-score.

As to ACGGACGG, the binding signal is -0.243 E-score.

For CCCGGAAG, the binding signal was -0.354 E-score.

Sequence AACTGGCA had a binding signal of -0.0633 E-score.

Turning to CGTTCCGA, the binding signal was -0.139 E-score.

AAGGCGGC: the binding signal was -0.303 E-score.

Consider GGACGAGA, for which the binding signal was -0.317 E-score.

ATAACCCC yielded a binding signal of -0.236 E-score.

As for AGCCCAGA, the binding signal is -0.183 E-score.

For the sequence TACCCGAA, the binding signal stood at 0.0596 E-score.

For GAGAGAAC, the binding signal is -0.00565 E-score.

The sequence TCAAAACA yielded a binding signal of 0.00942 E-score.

As to ATTTCATC, the binding signal turned out to be 0.136 E-score.

On to AGGAGTCA, for which the binding signal was -0.206 E-score.

As to AGGGGATA, the binding signal is -0.156 E-score.

Turning to GCGACCCC, the binding signal is -0.377 E-score.

TGATATCA: the binding signal was 0.275 E-score.

Sequence CCTAGCAC showed a binding signal of -0.1 E-score.

Regarding CATCCGAA, the binding signal was -0.16 E-score.

The sequence GGTCTCTA came in with a binding signal of 0.0202 E-score.

In the case of ACAAAAGC, the binding signal was found to be 0.121 E-score.

Take GTACATAA: the binding signal worked out at 0.303 E-score.

CTTAAACC returned a binding signal of -0.109 E-score.

Consider CGGCTTCA, for which the binding signal was -0.26 E-score.

ATCGCTTA returned a binding signal of 0.0672 E-score.

Sequence GGGGCGCA came in with a binding signal of -0.366 E-score.

GAATGGCC had a binding signal of -0.15 E-score.

Turning to CCACGGAA, the binding signal amounted to 0.0441 E-score.

CCTTCCGC: the binding signal was -0.245 E-score.

ACGCAAGT showed a binding signal of -0.122 E-score.

CACTTGCC registered a binding signal of -0.13 E-score.

On to CACTCCCA, for which the binding signal was -0.224 E-score.

CGTAGTGC: the binding signal is 0.0664 E-score.

In turn, CAGCAGCA showed a binding signal of -0.0504 E-score.

Take AAAATCAA: the binding signal is -0.00492 E-score.

Consider ATCAGCCA, for which the binding signal was -0.0584 E-score.

The sequence AACATACT showed a binding signal of 0.136 E-score.

For ACCGCAAG, the binding signal is -0.157 E-score.

GTATCGAA had a binding signal of 0.0625 E-score.

In turn, CATATGTA showed a binding signal of 0.338 E-score.

In the case of GCATTTTA, the binding signal was 0.191 E-score.

AGGCGCTA came in with a binding signal of -0.15 E-score.

Take ACATGTAT: the binding signal turned out to be 0.167 E-score.

As for TAACGCCA, the binding signal was -0.189 E-score.

In turn, GGTCCTTA gave a binding signal of -0.176 E-score.

Regarding GGTAAAAA, the binding signal stood at 0.349 E-score.

With CCTTGAAG, the binding signal was -0.235 E-score.

For the sequence ACACAGAG, the binding signal was -0.0986 E-score.

As for AGGTTGCG, the binding signal was determined as 0.0775 E-score.

CCGGGATC gave a binding signal of -0.283 E-score.

Consider GCCGCCGC, for which the binding signal was -0.281 E-score.

CGCTGGTC had a binding signal of -0.221 E-score.

Sequence ATCTGCAC returned a binding signal of -0.176 E-score.

GGCCCCCA registered a binding signal of -0.471 E-score.

CATTACCA registered a binding signal of 0.14 E-score.

CCGGATGC gave a binding signal of -0.184 E-score.

In the case of CCGAAATC, the binding signal was -0.098 E-score.

Turning to TCAGCGCA, the binding signal is -0.0441 E-score.

Consider ACTGTTTG, for which the binding signal was 0.106 E-score.

Sequence CGCCTCGA had a binding signal of -0.18 E-score.

Consider AGGATTTC, for which the binding signal was -0.0619 E-score.

GTGGAAAA yielded a binding signal of -0.0589 E-score.

TATCTTCA: the binding signal stood at 0.162 E-score.

ACCTTGGA gave a binding signal of -0.145 E-score.

Consider ACGGCGTA, for which the binding signal stood at 0.0265 E-score.

Sequence CATCAAAG returned a binding signal of 0.0902 E-score.

Sequence ATTCCCCA registered a binding signal of -0.171 E-score.

On to ACGCTCTA, for which the binding signal worked out at 0.147 E-score.

The sequence CTATACTC yielded a binding signal of 0.137 E-score.

With AGGATCTC, the binding signal is -0.0828 E-score.

In the case of ATCTGGAG, the binding signal is -0.112 E-score.

CAGCCCGC: the binding signal was -0.285 E-score.

The sequence AAATCGAG registered a binding signal of -0.063 E-score.

On to ACGGCGTC, for which the binding signal was -0.237 E-score.

As for GGCACATA, the binding signal is -0.0396 E-score.

The sequence ACACTTGG displayed a binding signal of 0.0922 E-score.

Turning to CCGAAAAA, the binding signal was -0.117 E-score.

GGGGCGAC yielded a binding signal of -0.279 E-score.

In turn, AGTCACTA came in with a binding signal of 0.0846 E-score.

With ACTTAAGT, the binding signal was 0.212 E-score.

As for GAATAAGC, the binding signal was -0.0545 E-score.

As for AACACCAA, the binding signal is 0.000516 E-score.

As to ACTAAATG, the binding signal came out at 0.277 E-score.

ATTTACCA displayed a binding signal of 0.322 E-score.

Consider AACACTTC, for which the binding signal came to 0.113 E-score.

For ATTGCTTC, the binding signal is 0.0898 E-score.

On to CACGGTGC, for which the binding signal is -0.28 E-score.

For ACTTGTAA, the binding signal is 0.168 E-score.

As for ATCAAGGC, the binding signal is -0.121 E-score.

In turn, CTCTGCAG registered a binding signal of -0.0862 E-score.

Regarding GGGGTAAA, the binding signal came out at 0.0577 E-score.

CGGAAATC had a binding signal of 0.0575 E-score.

With TATCCGCA, the binding signal was 0.0642 E-score.

Consider TAAAACGA, for which the binding signal is 0.111 E-score.
